Reference: PubChem BioAssay AID1671194 (National Center for Advancing Translational Sciences (NCATS), 2021)
The campaign covered roughly 140,000 compounds. About 240 (0.17%) were called active. Inconclusive means that the source gave no clear call. Such entries were picked first, then a sample of the others. Calls follow the shape of the dose curve; as a rule, active = well fitted inhibition curve with a large enough effect; inconclusive = small, poorly fitted or top-dose-only effect; inactive = no such curve, though single readings can be large or run the other way. Potencies beside an inconclusive call are fits to weak or partial responses and may not hold up.

assay: Primary qHTS assay for inhibitors of alpha-synuclein gene (SNCA) expression; settings: HEK-293 SNCA-luciferase knock-in, luminescence, 24 h; series mostly up to 57.2 µM; also: nearly all actives have a fitted effect of over 45% in size
Potency is read from the fitted curve at half-maximal effect; tags tell the direction and shape of the fitted curve.

SMILES | Potency
Cc1nc([C@@H]2CN(S(=O)(=O)c3ccc4c(c3)CCC4)C[C@H]2C(N)=O)n[nH]1 | inconclusive: 8.91 µM [inhibitor, partial curve]
COCC(=O)N1CCCC(C(=O)NCCc2noc(C3CCCC3)n2)C1 (configuration not stated) | inconclusive: 25.1 µM [inhibitor, partial curve, poor fit]
COc1ccc(CN2C[C@H]3CN(Cc4ccc(C(F)(F)F)cc4)CCN3C2=O)cc1 | inactive
COc1ccc(CN2C[C@H]3CN(Cc4c[nH]c5ccccc45)CCN3C2=O)cc1 | inactive
O=C1c2c(nc(CNc3ccc(F)cc3)n2Cc2ccccc2)NCCN1Cc1ccccc1 | inconclusive: 22.4 µM [inhibitor, partial curve, poor fit]
Cc1ccc(Nc2cc(C)nc3nc(Cc4ccc(Cl)cc4)nn23)cc1 | inconclusive: 28.2 µM [inhibitor, single point]
COc1cccc2c1OCC(CNC(=O)CN1CCCCCC1=O)C2 (configuration not stated) | inactive
CCn1c2c(c(=O)n1-c1ccccc1)CCN(C(=O)c1scnc1C)C2 | inconclusive: 56.2 µM [inhibitor, single point]
Cc1ccccc1CN1CCC(CNc2ncnc3onc(-c4ccc(Cl)cc4)c23)CC1 | inconclusive: 6.31 µM [inhibitor, full curve]
CC(C)c1ccc([S+](=O)([O-])c2nnn3c2nc(NCc2ccncc2)c2ccccc23)cc1 | inconclusive: 7.08 µM [inhibitor, single point]
CS(=O)(=O)N1C[C@H]2CCN(Cc3c(F)cccc3Cl)C[C@H]21 | inconclusive: 22.4 µM [inhibitor, single point]
COc1cccc(CCC(=O)NCc2nnc3c(-c4nc(C5CC5)no4)cccn23)c1 | inconclusive: 5.01 µM [inhibitor, full curve, poor fit]
O=C(NCc1ccncc1)c1nc2c(o1)CCN(Cc1ccccc1)CC2 | inactive
FC(F)(F)c1ccc2nc([C@H]3CCN(Cc4ccc(Cl)cc4)C3)[nH]c2c1 | inconclusive: 28.2 µM [inhibitor, partial curve, poor fit]
NCCCCCc1nnc(SCc2ccc(F)cc2)o1 | inconclusive: 39.8 µM [inhibitor, single point]
COCCNC(=O)CSc1c2c(nc3cc(Cl)ccc13)CCCC2 | inconclusive: 0.178 µM [inhibitor, single point]
Cc1ccc(-c2ccc3nnc(CNC(=O)c4cccc(C(F)(F)F)c4)n3n2)cc1 | inconclusive: 2.82 µM [inhibitor, full curve, poor fit]
